The list shows a part of the results. Viral Rep nickase domains cut single-stranded DNA in vitro (3 µM enzyme, 1 h, 37 °C); shown is the middle of each 90-letter strand. A value is the log2 ratio of uncut reads to the pool without enzyme; uncut sequences lie near 0, cut ones below; no hit call is given. Reads are scaled to the total, so uncut sequences can rise above 0 when many others are cut.
The sequences below were run on T1, Rep nickase domain of tomato golden mosaic virus (assay: uncleaved DNA left, log2 of reads against the no-enzyme library (log2 ratio); higher = less cleavage (more negative = more Rep cleavage of the k-mer); sequences stand for … in CTCGTCCG…ACCGGAGA).
T1 sequence (protein, residues 1-124, tag omitted): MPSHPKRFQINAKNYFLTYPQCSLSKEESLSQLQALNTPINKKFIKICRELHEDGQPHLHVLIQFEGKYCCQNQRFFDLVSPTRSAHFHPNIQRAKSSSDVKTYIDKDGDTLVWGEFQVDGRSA
Protocol: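 A pool of 90-nt single-stranded DNAs with seven random bases just before the constant AC of the nick site (name = the seven bases) was cut by 3 µM recombinant His6-SUMO-tagged Rep nickase domain (300 nM DNA, 50 mM HEPES pH 8.0, 50 mM NaCl, 1 mM MnCl2, 1 h, 37 °C, three replicates). Uncut DNA was amplified and sequenced.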

**Q.** Which “uncleaved DNA left (log2)” value does the source give for AACTCGC here?
**A.** The value was -0.0828.

**Q.** Which “uncleaved DNA left (log2)” value does the source give for ACCATAA here?
**A.** The value was 0.0742.

**Q.** For ACTCAGG, which “uncleaved DNA left (log2)” value is on record?
**A.** Its value is 0.0791.

**Q.** Which “uncleaved DNA left (log2)” value does the source give for GAAGCGT here?
**A.** The value was -0.0299.

**Q.** How did the “uncleaved DNA left (log2)” value turn out when ACGATCA was run?
**A.** The value was 0.139.

**Q.** How did the “uncleaved DNA left (log2)” value turn out when CGCTACT was run?
**A.** The value was -0.111.

**Q.** How did the “uncleaved DNA left (log2)” value turn out when AGTAGCG was run?
**A.** The value was -0.0267.

**Q.** For CCCAGTT, which “uncleaved DNA left (log2)” value is on record?
**A.** Its value is -0.0165.

**Q.** GTGGTTA was tested. Which “uncleaved DNA left (log2)” value did it give?
**A.** The value was 0.0539.

**Q.** For CAAGACC, which “uncleaved DNA left (log2)” value is on record?
**A.** The value was -0.0884.

**Q.** How did the “uncleaved DNA left (log2)” value turn out when ACGTTTC was run?
**A.** Its value is 0.0189.

**Q.** For ATCCCGT, which “uncleaved DNA left (log2)” value is on record?
**A.** The value was 0.0189.

**Q.** Which “uncleaved DNA left (log2)” value does the source give for GTATTAG here?
**A.** Its value is -0.0372.

**Q.** How did the “uncleaved DNA left (log2)” value turn out when GCAGCCT was run?
**A.** Its value is 0.00764.

**Q.** With ATTCATA as the sequence, how does the “uncleaved DNA left (log2)” value read?
**A.** The value was 0.0271.

**Q.** How did the “uncleaved DNA left (log2)” value turn out when TCGATAT was run?
**A.** Its value is -0.0136.

**Q.** With TCGGCAA as the sequence, how does the “uncleaved DNA left (log2)” value read?
**A.** The value was -0.0333.

**Q.** With CGGCCAA as the sequence, how does the “uncleaved DNA left (log2)” value read?
**A.** The value was 0.0286.

**Q.** For ATACGCT, which “uncleaved DNA left (log2)” value is on record?
**A.** The value was -0.0835.

**Q.** For CTCTGGC, which “uncleaved DNA left (log2)” value is on record?
**A.** Its value is -0.0306.

**Q.** With CGTGTGC as the sequence, how does the “uncleaved DNA left (log2)” value read?
**A.** Its value is 0.0382.

**Q.** With TTTTGCG as the sequence, how does the “uncleaved DNA left (log2)” value read?
**A.** The value was -0.167.

**Q.** CCTAGTA was tested. Which “uncleaved DNA left (log2)” value did it give?
**A.** Its value is 0.059.

**Q.** How did the “uncleaved DNA left (log2)” value turn out when CGCTCCT was run?
**A.** Its value is -0.201.

**Q.** AATGTAA was tested. Which “uncleaved DNA left (log2)” value did it give?
**A.** The value was 0.00694.

**Q.** TATGGGG was tested. Which “uncleaved DNA left (log2)” value did it give?
**A.** Its value is 0.113.

**Q.** How did the “uncleaved DNA left (log2)” value turn out when CTTCCAG was run?
**A.** Its value is -0.0908.

**Q.** Which “uncleaved DNA left (log2)” value does the source give for TTGCATA here?
**A.** Its value is 0.0398.

**Q.** With TCAGAGC as the sequence, how does the “uncleaved DNA left (log2)” value read?
**A.** Its value is -0.0384.

**Q.** How did the “uncleaved DNA left (log2)” value turn out when CTTGCAA was run?
**A.** The value was 0.134.

**Q.** With CGCCGCA as the sequence, how does the “uncleaved DNA left (log2)” value read?
**A.** Its value is 0.0362.

**Q.** Which “uncleaved DNA left (log2)” value does the source give for TGTTGAA here?
**A.** Its value is 0.0553.

**Q.** Which “uncleaved DNA left (log2)” value does the source give for CGCTTTT here?
**A.** Its value is 0.0127.

**Q.** AAACTTA was tested. Which “uncleaved DNA left (log2)” value did it give?
**A.** The value was 0.131.

**Q.** With CTTCTTC as the sequence, how does the “uncleaved DNA left (log2)” value read?
**A.** The value was -0.234.

**Q.** With CCGTGTC as the sequence, how does the “uncleaved DNA left (log2)” value read?
**A.** Its value is -0.139.

**Q.** GCATGAT was tested. Which “uncleaved DNA left (log2)” value did it give?
**A.** Its value is 0.0383.

**Q.** ATGCTCT was tested. Which “uncleaved DNA left (log2)” value did it give?
**A.** The value was -0.244.

**Q.** With TACTTTT as the sequence, how does the “uncleaved DNA left (log2)” value read?
**A.** The value was -1.87.

**Q.** How did the “uncleaved DNA left (log2)” value turn out when TGGGTAT was run?
**A.** Its value is 0.0968.

From the supplement of paper PMC7826260
